Assay results: PMC5268738, “A sequential multi-target Mps1 phosphorylation cascade promotes spindle checkpoint signaling” (eLife, 2017)

Tests used:
[1] = system: N-terminal fragment of Cdc20 (residues 1–170, Cdc20^N); experiment: in vitro pull-down of Mps1-treated Mad1^E–Mad2 by Cdc20^N beads; assay type: binding, human; conditions: Ni^2+ beads with Cdc20^N170-His6; Mad1 pre-treated with kinase domain of Mps1; anti-Mad1 blot
Experimental: Expression of Cdc20-His6 proteins containing the N-terminal regions of Cdc20 was induced by 1 mM isopropyl β-D-1-thiogalactopyranoside (IPTG) at 37 °C for 6 h. Harvested pellets were lysed in denaturing lysis buffer (100 mM NaH2PO4, 10 mM Tris-HCl, pH 8.0, 8 M Urea), and incubated overnight by gentle rocking at room temperature. After centrifugation, the supernatants were incubated with pre-equilibrated Ni^2+-NTA beads (Qiagen). Protein-bound beads were washed with 15 volumes of denaturing wash buffer (100 mM NaH2PO4, 10 mM Tris-HCl, pH 6.3, 8 M Urea). The proteins were then eluted with denaturing elution buffer (100 mM NaH2PO4, 10 mM Tris-HCl, pH 4.5, 8 M Urea). The eluted proteins were then dialyzed into the storage buffer (50 mM Tris, pH 8.0, 200 mM NaCl, 5% glycerol, 1 mM β-mercaptoethanol). […]
For kinase assays, 1 μM Cdc20^ΔN60, 40 μM Mad1^E–Mad2, or 400 nM Bub1^ΔK–Bub3 was incubated with 40 nM Bub1, 500 nM Mps1, and/or 50 nM Cdk1–Cyclin B1 at room temperature for 30 min in the kinase buffer (25 mM Tris-HCl, pH 7.7, 100 mM NaCl, 10 mM MgCl2, 5 mM NaF, 20 mM β-glycerophosphate, 0.1 mM Na3VO4 and 1 mM DTT) supplemented with 1 mM ATP. The reaction mixtures were stopped with the appropriate kinase inhibitors for further protein-binding assays, or quenched with the SDS loading buffer and analyzed by Coomassie blue staining or Western blotting. […]

APC/C^Cdc20 = APC/C^Cdc20 inhibition by MCC components (securin ubiquitination assay); assay type: biochemical, Xenopus APC/C, human Cdc20; conditions: Mad1^E–Mad2 treated with Mps1, no Bub1; Mad2^Mono, BubR1^N

B1: Mad1^E–Mad2 WT: E fragment of Mad1 containing MIM and CTD, in complex with Mad2 (protein)
chain 1: SSAEQSFLFSREEADTLRLKVEELEGERSRLEEEKRMLEAQLERRALQGDYDQSRTKVLHMSLNPTSVARQRLREDHSQLQAECERLRGLLRAMERGGTVPADLEAAAASLPSSKEVAELKKQVESAELKNQRLKEVFQTKIQEFRKACYTLTGYQIDITTENQYRLTSLYAEHPGDCLIFKATSPSGSKMQLLETEFSHTVGELIEVHLRRQDSIPAFLSSLTLELFSRQTVA
chain 2: [about 200 residues left out here]
modifications: left off: GST, N-terminal, kept
- binding of Mps1-treated Mad1^E–Mad2 to Cdc20^N (in words) [1]: efficiently pulled down
- Mps1-dependent, Bub1-independent MCC formation and APC/C inhibition (in words) (APC/C^Cdc20): supported Mps1-dependent MCC formation and APC/C inhibition
